Assay results reported in the supplement of paper PMC8047034.
Structures can show the parent of a compound that is named as a salt. This is one part of the list. Most values come without repeats; read them as rough.

tested on: OVCAR4; assay: log2 surviving fraction (library drug vs vehicle, or drug + carboplatin vs carboplatin alone; relative to plate median); ovarian cancer lines: OVCAR4 is platinum-sensitive and Ov4Carbo platinum-resistant; higher = more cell survival; conditions: library drug concentration 10 µM; 7 days; carboplatin co-treatment 0 µM

Compound	log2 surviving fraction
NC12CC3CC(CC(C3)C1)C2 [Amantadine hydrochloride (Symmetrel)]	0.662
CCC1(c2ccc(N)cc2)CCC(=O)NC1=O (stereo not given) [Aminoglutethimide (Cytadren)]	-4.02
Clc1ccc(COC(Cn2ccnc2)c2ccc(Cl)cc2Cl)cc1 (stereo not given) [Econazole nitrate (Spectazole)]	-2.05
CC1CNc2c(cccc2S(=O)(=O)N[C@@H](CCCNC(=N)N)C(=O)N2CC[C@@H](C)C[C@@H]2C(=O)O)C1 (stereo not given in full) [Argatroban]	1
Fc1ccc([C@@H]2CCNC[C@H]2COc2ccc3c(c2)OCO3)cc1 [Paroxetine HCl]	-6.22
O=P(O)(O)C(O)(Cc1cccnc1)P(=O)(O)O [Risedronic acid (Actonel)]	-0.221
C[C@](N)(Cc1ccc(O)c(O)c1)C(=O)O [Methyldopa (Aldomet)]	-4.33
CN1CCN(c2cc3c(cc2F)c(=O)c(C(=O)O)cn3-c2ccc(F)cc2)CC1 [Difloxacin HCl]	-2.56
C[C@H](CCC(=O)O)[C@H]1CC[C@H]2[C@@H]3[C@H](O)C[C@@H]4C[C@H](O)CC[C@]4(C)[C@H]3CC[C@]12C [Chenodeoxycholic acid]	0.839
Cc1ccc2c(Cl)cc(Cl)c(O)c2n1 [Chlorquinaldol]	-6.94
O=C1c2ccccc2C(=O)C1c1ccccc1 [Phenindione (Rectadione)]	0.925
CC(C)NC[C@@H](O)COc1ccc(CC(N)=O)cc1 [(R)-(+)-Atenolol]	0.279
CC(CCc1ccc(O)cc1)NCC(O)c1ccc(O)cc1 (stereo not given) [Ractopamine HCl]	-0.78
COc1ccc([C@H]2CNC(=O)C2)cc1OC1CCCC1 [S-(+)-Rolipram]	-0.259
O=C(O)c1cn(C2CC2)c2cc(N3CCNCC3)c(F)cc2c1=O [Ciprofloxacin (Cipro)]	0.137
NCCS(=O)(=O)O [Taurine]	-0.255
CC(=O)Nc1cc([As](=O)(O)O)ccc1O [Acetarsone]	-2.67
Nc1ccc(/N=N/c2ccccc2)c(N)n1 [Phenazopyridine HCl]	0.571
CCc1cc2c(cc1CC)CC(NC[C@H](O)c1ccc(O)c3[nH]c(=O)ccc13)C2 [Indacaterol Maleate]	-0.496
COCCc1ccc(OCC(O)CNC(C)C)cc1 (stereo not given) [Metoprolol tartrate]	0.371

Compound	log2 surviving fraction
COc1cc2nc(N3CCN(C(=O)c4ccco4)CC3)nc(N)c2cc1OC [Prazosin HCl]	-0.947
C[N+](C)(C)CCOC(N)=O [Carbachol]	-0.0717
C[C@H](N[C@@H](CCc1ccccc1)C(=O)O)C(=O)N1CCC[C@H]1C(=O)O [Enalaprilat dihydrate]	0.158
CCOc1cc(CC(=O)N[C@@H](CC(C)C)c2ccccc2N2CCCCC2)ccc1C(=O)O [Repaglinide]	-3.52
CCCCNc1ccc(C(=O)OCCN(C)C)cc1 [Tetracaine hydrochloride (Pontocaine)]	0.248
CC[C@H](C)[C@H](N)C1=N[C@H](C(=O)N[C@@H](CC(C)C)C(=O)N[C@H](CCC(=O)O)C(=O)N[C@H](C(=O)N[C@H]2CCCCNC(=O)[C@H](CC(N)=O)NC(=O)[C@@H](CC(=O)O)NC(=O)[C@H](Cc3cnc[nH]3)NC(=O)[C@@H](Cc3ccccc3)NC(=O)[C@H]([C@@H](C)CC)NC(=O)[C@@H](CCCN)NC2=O)[C@@H](C)CC)CS1 [Bacitracin]	1.4
CC(=O)O[C@@]12CO[C@@H]1C[C@@H](O)[C@@]1(C)C(=O)[C@H](O)C3=C(C)[C@@H](O)C[C@@](O)([C@@H](OC(=O)c4ccccc4)[C@H]21)C3(C)C [10-DAB (10-Deacetylbaccatin)]	-5.19
O=c1[nH]c(=O)n([C@H]2C[C@H](O)[C@@H](CO)O2)cc1I [Idoxuridine]	-0.796
CCOc1ccc2nc3cc(N)ccc3c(N)c2c1 [Ethacridine lactate monohydrate]	-8.53
CC(C)NCC(O)c1ccc(O)c(O)c1 (stereo not given) [Isoprenaline hydrochloride]	0.00949
Cl.N=C(N)NCCC[C@H](N)C(=O)O [L-Arginine HCl]	0.331
Cc1cccc(Nc2ccccc2C(=O)O)c1C [Mefenamic acid]	-0.339
CCOc1cc(N)c(Cl)cc1C(=O)NCC1CN(Cc2ccc(F)cc2)CCO1 (stereo not given) [Mosapride citrate]	0.03
CC(=O)OCC(=O)[C@H]1CC[C@H]2[C@@H]3CCC4=CC(=O)CC[C@]4(C)[C@H]3CC[C@]12C [Deoxycorticosterone acetate]	1.21
CCOC(=O)c1ccc(N)cc1 [Benzocaine]	0.314
O=C(Nc1cccc2c(=O)cc(-c3nnn[nH]3)oc12)c1ccc(OCCCCc2ccccc2)cc1 [Pranlukast]	0.614
CCCCOc1ccc(OCCCN2CCOCC2)cc1 [Pramoxine HCl]	-0.0955
CCOC(=O)C(C)(C)Oc1ccc(Cl)cc1 [Clofibrate (Atromid-S)]	0.152
CN1Cc2c(N)cccc2C(c2ccccc2)C1 (stereo not given) [Nomifensine Maleate]	-0.54
CC(C)(O)c1ccccc1CC[C@@H](SCC1(CC(=O)O)CC1)c1cccc(/C=C/c2ccc3ccc(Cl)cc3n2)c1 [Montelukast Sodium]	0.403
